Laboratory results as given in PubChem BioAssay AID504832 (National Center for Advancing Translational Sciences (NCATS), 2011).
Where “and” joins values, the source holds several entries; their conditions need not be identical. Equal entries are not always repeated. Among all 310,000 compounds or so, about 18,000 (5.8%) were called active. Inconclusive results, whose numbers are uncertain, are shown with a selection of clear calls. The call rests on the fitted dose curve; in most records, active means well fitted inhibition curve with a large enough effect; inconclusive means small, poorly fitted or top-dose-only effect, or another doubt; inactive means no such curve, though single readings can be large or run the other way. No potency is given beside an inconclusive call; the fits are too rough.
Potency means the concentration at half of the fitted maximal effect; tags describe the fitted curve by direction and shape.

Experiment: Primary qHTS for delayed death inhibitors of the malarial parasite plastid, 48 hour incubation
Details: P. falciparum luciferase growth in erythrocytes; series mostly up to 28.7 µM
Procedure, shortened: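 Read-out is firefly luciferase luminescence from an integrated reporter in P. falciparum, so falling signal marks reduced parasite growth. Infected erythrocytes were at 2% hematocrit and 0.1% parasitemia (final) in Albumax-supplemented RPMI 1640.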
For `COc1c(C)cc(C(=O)C2CCCN(C(=O)c3ccc4[nH]ccc4c3)C2)cc1C` (centres undefined), the Potency was “inactive”.
With `COc1ccc(C(CC(=O)O)NS(=O)(=O)c2ccc(C)cc2)cc1` (centres undefined) the Potency was “inactive”.
In the case of `CC(C)(C)c1ccc(S(=O)(=O)N2CCC(NC(=O)c3ccco3)CC2)cc1`, the Potency is reported as inconclusive [inhibitor, partial curve].
For `O=C1CCC(C(=O)N2CCCC(C(=O)c3ccc4c5c(cccc35)CC4)C2)=NN1` (centres undefined), the Potency was “inactive”.
In the case of `COc1ccc(OC)c(NC(=O)CSc2nnnn2-c2ccc3c(c2)OCO3)c1`, the Potency is reported as inconclusive [inhibitor, single point].
In the case of `O=C(Nc1nc(-c2cccs2)c(-c2cccs2)s1)C1(c2ccccc2)CC1`, the Potency is reported as inconclusive [inhibitor, single point].
For `COc1ccccc1OCC(=O)NCc1ccco1`, the Potency was “inactive”.
With `CSc1nnc(-c2ccc(F)cc2)o1` the Potency was inconclusive [inhibitor, partial curve, poor fit].
For `CC/C(=C(\c1ccccc1)c1ccc(OCCN(C)C)cc1)c1ccccc1`, the Potency was active: 7.38 µM and active: 13.1 µM.
With `COc1ccc(Cl)cc1NC(=O)c1nnn(CC(=O)Nc2ccc(C)c(C)c2)c1N` the Potency was “inactive”.
For `O=C(COC(=O)c1ccc(CNS(=O)(=O)c2ccc(F)c(Cl)c2)cc1)NCC1CCCCC1`, the Potency was “inactive”.
For `Cc1ccc(S(=O)(=O)N2CCN(Cc3ccccc3)CC2)c(C)c1N(C)S(=O)(=O)c1ccccc1`, the Potency was inconclusive [inhibitor, partial curve].
With `COc1ccc(OCC(=O)Nc2ccc(OC)c(S(=O)(=O)N3CCCCC3)c2)cc1` the Potency was “inactive”.
For `Cc1c(C=O)c2ccccc2n1Cc1ccc(F)cc1`, the Potency was inconclusive [inhibitor, partial curve, poor fit].
With `O=S(=O)(c1ccc2ccccc2c1)N1CCC(c2nc(-c3ccncc3)no2)CC1` the Potency was active: 13.1 µM.
In the case of `O=C(NCCO)/C(=C/c1cccc([N+](=O)[O-])c1)NC(=O)c1ccco1`, the Potency is reported as inconclusive [inhibitor, full curve, poor fit].
With `CCOc1ccc(CC(=O)Nc2cccc(-c3ccc4nnc(C)n4n3)c2)cc1` the Potency was inconclusive [inhibitor, single point].
In the case of `Cc1ccc(C(=O)CN(CCC(=O)O)C(=O)c2ccncc2)cc1`, the Potency is reported as “inactive”.
For `O=C(OCC(=O)N1CCOCC1)c1ccccc1O`, the Potency was “inactive”.
For `NC(=O)c1ccc(NC(=O)C#Cc2ccccc2)cc1`, the Potency was inconclusive [inhibitor, partial curve].
For `CCCOc1ccc(N2C(=O)CC(N(CCc3ccc(OC)cc3)C(=O)c3cccc(F)c3)C2=O)cc1` (centres undefined), the Potency was inconclusive [inhibitor, single point].
For `Cc1cc(C(=O)CCl)c(C)n1Cc1ccco1`, the Potency was “inactive”.
With `O=C(NCCC(=O)N1CCN(c2ccccc2O)CC1)c1ccc(Cl)cc1` the Potency was inconclusive [inhibitor, partial curve, poor fit].
For `O=C(N/N=C/c1ccc(COc2ccc(Br)cc2)o1)c1ccco1`, the Potency was inconclusive [inhibitor, partial curve, poor fit].
For `CC(=O)N1CCN(S(=O)(=O)c2cccc(C(=O)NNC(=O)COc3ccc(Cl)cc3C)c2)CC1`, the Potency was inconclusive [inhibitor, partial curve, poor fit].
With `O=C(Nc1cccnc1)c1ccc(S(=O)(=O)c2ccc(Cl)cc2)cc1` the Potency was inconclusive [inhibitor, partial curve].
For `CCN1CCCC1CNC(=O)c1cn(CC)c2ccc(S(=O)(=O)N3CCCCCC3)cc2c1=O` (centres undefined), the Potency was inconclusive [inhibitor, single point].
With `O=C(N/N=C/c1ccc2c(c1)OCO2)c1cc(-c2ccccc2)nc2ccccc12` the Potency was inconclusive [inhibitor, single point].
In the case of `CC1=C(C(=O)OCC2CCCO2)C(c2ccc(C)cc2)C2=C(CC(C)(C)CC2=O)N1` (centres undefined), the Potency is reported as “inactive”.
In the case of `COc1ccc(-c2[nH]c(-c3ccc(C)cc3)nc2SCC(=O)Nc2nccs2)cc1`, the Potency is reported as “inactive”.
For `Fc1ccccc1-c1csc(=Nc2cccnc2)n1CC1CCCO1` (centres undefined), the Potency was active: 8.28 µM.
In the case of `COCCn1c(SCC(=O)Nc2ccccc2OC)nc2c(oc3ccccc32)c1=O`, the Potency is reported as inconclusive [inhibitor, single point].
With `CCOc1ccc(-c2cc(CCCC(=O)NCCCOC)no2)cc1` the Potency was inconclusive [inhibitor, single point].
In the case of `CCC(=O)c1cn(CC(=O)Nc2c(C)cccc2C)c2ccccc12`, the Potency is reported as “inactive”.
With `NC(=O)C1(N2CCCCC2)CCN(C(=O)CSc2nc3ccccc3s2)CC1` the Potency was inconclusive [inhibitor, single point].
In the case of `CCCC(C)NC(=O)Cc1ccc(S(=O)(=O)N2CCOCC2)s1` (centres undefined), the Potency is reported as “inactive”.
With `CC(=O)c1ccc(N2Cc3ccccc3/C2=N\C(=O)Nc2ccc(Cl)cc2)cc1` the Potency was “inactive”.
In the case of `COc1ccc(NS(=O)(=O)c2ccc(N3CCOCC3)c(NC(=O)C(C)C)c2)cc1`, the Potency is reported as inconclusive [inhibitor, partial curve, poor fit].
For `Cc1ccc(NC(=O)CSc2nnc3ccccn23)cc1S(=O)(=O)N1CCOCC1`, the Potency was inconclusive [inhibitor, partial curve, poor fit].
For `CCOC(=O)C1(Cc2cccc(OC)c2)CCCN(C(=O)CCN2CCCO2)C1` (centres undefined), the Potency was “inactive”.
With `Cc1cc2oc(=O)cc(CNc3ccccc3F)c2cc1O` the Potency was inconclusive [inhibitor, single point].
In the case of `CCCCCCCNC(=O)C1(CC2CC(c3cccc(Br)c3)=NO2)CCN(C(=O)c2cc(OCC)c(OCC)c(OCC)c2)CC1` (centres undefined), the Potency is reported as active: 0.657 µM.
In the case of `CCN(CC(=O)NCc1ccc(Cl)cc1)C(=O)CSc1cc(C)ccc1C`, the Potency is reported as inconclusive [inhibitor, single point].
For `O=C(C[n+]1ccccc1)N/N=C/c1cc(Br)cc(Br)c1O`, the Potency was inconclusive [inhibitor, full curve].
With `CCC(C(=O)N1CCOCC1)n1nc(C)n2c(cc3cc(C)ccc32)c1=O` (centres undefined) the Potency was “inactive”.
With `CCCCOc1ccc(-c2c(C#N)c(N)nc(SCC(N)=O)c2C#N)cc1` the Potency was inconclusive [inhibitor, single point].
For `Cc1cccc(C)c1NC(=O)c1c(C)nn(-c2ccccc2)c1Cl`, the Potency was inconclusive [inhibitor, single point].
For `O=C(NCCCN1CCN(c2cccc(Cl)c2)CC1)C1(S(=O)(=O)c2ccc(Cl)cc2)CC1`, the Potency was inconclusive [inhibitor, single point].
In the case of `CCN(CC)c1ccc(N=Cc2c(O)n(-c3ccccc3C)c(=O)[nH]c2=O)cc1`, the Potency is reported as inconclusive [inhibitor, single point].
For `COc1ccccc1NC(=O)CSc1nnc(COc2ccc(Cl)cc2)n1Cc1ccco1`, the Potency was inconclusive [inhibitor, single point].
In the case of `O=C(NCc1ccc2c(c1)OCO2)C12CN(Cc3ccccc3)CC1C(c1cccc([N+](=O)[O-])c1)=NO2` (centres undefined), the Potency is reported as active: 9.28 µM.
For `COc1ccccc1NC(=O)CSc1nnc(Cn2nnc(-c3ccccc3)n2)n1-c1ccccc1`, the Potency was inconclusive [inhibitor, single point].
With `CC(C)OC(=O)/C(=C/c1ccco1)c1ccccc1` the Potency was “inactive”.
With `CN(C)c1cccc(C(=O)OCc2cc(=O)oc3cc(O)ccc23)c1` the Potency was active: 11.7 µM.
In the case of `Cc1ccc2c(Cl)c(C(=O)Nc3cccnc3)sc2c1`, the Potency is reported as “inactive”.
For `O=C(CN1C(=O)NC(Cc2c[nH]c3ccccc23)C1=O)Nc1ccccc1Br` (centres undefined), the Potency was inconclusive [inhibitor, single point].
In the case of `Cc1cc2c(c(=O)o1)C(c1ccc([N+](=O)[O-])o1)C(C#N)=C(N)O2` (centres undefined), the Potency is reported as “inactive”.
In the case of `O=C(/C=C/c1c(Cl)nc2ccccn12)Nc1ccc(F)cc1`, the Potency is reported as inconclusive [inhibitor, full curve, poor fit].
In the case of `COc1cccc(C(=O)NCCS(=O)(=O)N2CCc3ccccc3C2)c1`, the Potency is reported as “inactive”.
In the case of `CC(C)NC(=O)Cn1cc(C#N)c2cc(Br)ccc21`, the Potency is reported as inconclusive [inhibitor, single point].
With `CCOC(=O)c1c(-c2cccc(C)c2)csc1NC(=O)c1c(-c2ccccc2)noc1C` the Potency was inconclusive [inhibitor, full curve, poor fit].
In the case of `CC(C)(Cc1cc(CC(C)(C)C(=O)O)cc(C(C)(C)C)c1)C(=O)O`, the Potency is reported as inconclusive [inhibitor, partial curve, poor fit].
For `CN1CCN(c2ccc(NC(=S)NC(=O)c3cccc4c(Br)cccc34)cc2)CC1`, the Potency was inconclusive [inhibitor, single point].
In the case of `CC1CCC2C(=O)N(c3cccc(C(=O)Nc4ccc(F)cc4)c3)C(=O)C2C1` (centres undefined), the Potency is reported as “inactive”.
In the case of `CCOC(=O)c1ccc(S(=O)(=O)NNC(=O)c2cccc(N(C)C)c2)cc1`, the Potency is reported as “inactive”.
In the case of `CCOc1ccc(OCC)c(NC(=O)C2CCCN(S(=O)(=O)c3cccs3)C2)c1` (centres undefined), the Potency is reported as inconclusive [inhibitor, partial curve, poor fit].
For `COc1cc(CN(CCc2c(C)[nH]c3ccc(C)cc23)C(=S)NC(C)(C)C)cc(OC)c1OC`, the Potency was inconclusive [inhibitor, full curve].
For `O=C(Cc1ccccc1)N1CCNCC1`, the Potency was inconclusive [inhibitor, full curve].
With `Cc1cc(/C=C(\C#N)C(=O)NCCc2c[nH]c3ccccc23)c(C)n1C` the Potency was “inactive”.
